Assay results taken from PubChem BioAssay AID757 (NMMLSC, 2007).
About 520 (0.27%) of roughly 190,000 compounds were called active. Inconclusive results, whose numbers are uncertain, are shown with a selection of clear calls.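 The calls were made as follows: active = GTP binding activity at least 20 points away from the 100% control level, either lower or higher; inconclusive = compound flagged as likely green fluorescent, judged across all proteins; inactive = the rest.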

Each molecule was assayed against Ras-related C3 botulinum toxin substrate 1 (Homo sapiens) (UniProt P63000) (assay: wildtype Rac1 GTP binding modulators, primary screen, biochemical, GST-Rac1 beads, flow cytometry, multiplex (AID 757)). Conditions: fluorescent GTP binding, at 10 µM, actives lie on both sides, 0 = cold GTP competed, 100 = untreated.

Structure (SMILES)	GTP binding activity (% of control)
O=C(CSc1ncnc2c1cnn2-c1ccc(F)cc1)NCc1ccc2c(c1)OCO2	inconclusive: 93%
Oc1ccc(/C=N/NC(=S)N/N=C/c2ccc(O)cc2)cc1	active: 71%
O=C(Cn1cnc2cc([N+](=O)[O-])ccc2c1=O)Nc1cccc(S(=O)(=O)N2CCOCC2)c1	inconclusive: 95%
CCC(=O)N/C(=N/c1nc(C)cc(C)n1)Nc1cccc(OC)c1	inconclusive: 106%
CCOC(=O)C(C(=O)OCC)C(C)C#CCN1CCCCC1 (configuration not stated)	inconclusive: 111%
CCOC(=O)C1CCCCN1Cc1cc(OC)ccc1OC (configuration not stated)	inconclusive: 105%
COCc1c(CCl)cnc(C)c1O	inconclusive: 90%
COc1cccc(-n2c(SCC(=O)NCCc3ccccc3)nnc2-c2ccoc2C)c1	inconclusive: 106%
CCOc1ccccc1N=C1NC(=O)CS1	inactive: 96%
CN(Cc1ccccc1)S(=O)(=O)c1ccc(OCC(=O)Nc2cccc([N+](=O)[O-])c2)cc1	inconclusive: 103%
O=c1c2cc(NC(=S)N3CCCCCC3)ccc2nc2n1CCCCC2	inactive: 94%
CN1C(=O)N(C)c2ccc(C=O)c3cccc1c23	active: 77%
Cc1cccc(-n2c(C)cc(/C=C3\C(=N)N4N=C(CC(C)C)SC4=NC3=O)c2C)c1	inconclusive: 90%
COc1cc(NS(C)(=O)=O)c(OC)cc1NC(=O)c1ccccc1	inconclusive: 104%
Cc1cc(C)c(OCC(=O)Nc2nc3ccccc3[nH]2)c(C)c1	inconclusive: 94%
COc1ccc(S(=O)(=O)N2CCOCC2)cc1C(=O)Nc1nc2ccccc2s1	active: 75%
O=C(COC(=O)c1ccc(S(=O)(=O)N2CCCC2)cc1)NCc1ccccc1	inconclusive: 88%
CC(=O)Nc1ccc(C2=NNC(=Nc3cccc(S(=O)(=O)N(C)C)c3)SC2)cc1	inconclusive: 92%
O=C(c1ccccc1F)c1cc2c(cc1[N+](=O)[O-])OCCO2	inactive: 94%
Cc1cc(C)cc(OCC(=O)Nc2ccc(S(=O)(=O)Nc3ccccn3)cc2)c1	inconclusive: 94%
CSc1nsc(SC)c1NC(=O)OC1CCCCC1	active: 30%
Cc1ccc(S(=O)(=O)N(C)C)cc1NC(=O)Cn1c(CN2CCOCC2)nc2ccccc2c1=O	inactive: 99%
CCOc1ccc(S(=O)(=O)Nc2nccs2)cc1	inactive: 94%

Structure (SMILES)	GTP binding activity (% of control)
CCc1cc2cc(C)ccc2nc1SCC(=O)Nc1cc(C)on1	inconclusive: 105%
O=C(O)CCCC(=O)NCCCCc1ccccc1	inconclusive: 87%
C=CCc1cc(C=O)cc(OC)c1OCc1ccc(C(=O)O)cc1	inconclusive: 94%
CSc1ccc(C(=S)N2CCN(C)CC2)cc1	inconclusive: 99%
COc1cc(CC(=O)NCc2ccco2)cc(OC)c1OC	inconclusive: 100%
CCc1ccccc1NC(=O)Cn1nc(C(F)(F)F)cc1C1CC1	inactive: 93%
COc1ccc(CSc2nnc(SCc3ccc([N+](=O)[O-])cc3)s2)cc1	inconclusive: 104%
CCOc1cccc(-c2nnc3sc(COc4ccc(C)cc4)nn23)c1	inconclusive: 85%
O=C1COc2ccc(C(=O)c3ccccc3C(=O)NCc3ccccc3)cc2N1	inactive: 104%
COc1ccc(C(=O)Cc2ccc(OC)c(OC)c2)c(OC)c1	inconclusive: 107%
CCn1cc(C(=O)O)c(=O)c2cc(F)c(N/N=C/c3ccccc3)cc21	active: 76%
CC(C)CC(=O)Nc1c2c(nn1-c1ccc(F)cc1)CSC2	inactive: 103%
Cc1ccc(OCCNC(=O)c2cccc(Oc3ccc(C(F)(F)F)cc3[N+](=O)[O-])c2)cc1	inconclusive: 88%
CCS(=O)(=O)NC(C)C(c1cccs1)N1CCN(c2ccc(OC)cc2)CC1 (configuration not stated)	inconclusive: 91%
Cc1ccc(-c2csc3nc4c5ccccc5c(NCCCN(C)C)nn4c(=O)c23)cc1	active: 79%
CCOc1cccc(CNCc2cccnc2)c1OCc1ccccc1	inconclusive: 100%
O=C(O)CCn1ccnc1-c1ccccc1	inconclusive: 102%
CC1CCC2(CC1)NC(=O)N(CC(=O)N1CCN(S(=O)(=O)c3ccccc3)CC1)C2=O (configuration not stated)	inactive: 95%
O=C1COc2ccc(C(=O)COC(=O)CNC(=O)C3CCCCC3)cc2N1	inactive: 96%
CC1c2nc3ccccc3n2C(CC(=O)NC2CC2)C(=O)N1Cc1ccccc1 (configuration not stated)	inactive: 100%
Cc1cc(C(=O)OCn2nnc3ccccc3c2=O)c(C)n1-c1ccccc1	inactive: 98%
O=C(Nc1cccc(S(=O)(=O)N2CCCC2)c1)c1ccc2ccccc2n1	inconclusive: 91%
CCOC(=O)c1nn(-c2ccccc2)c(=O)c(C#N)c1C	inconclusive: 105%

Structure (SMILES)	GTP binding activity (% of control)
CCC(C)NC(=O)CSc1nc2n[nH]c(C)c2c(=N)n1-c1ccc(OC)cc1 (configuration not stated)	inconclusive: 77%
O=C(O)CCc1nnc(SCC(=O)Nc2ccc(Br)cc2)[nH]c1=O	inconclusive: 91%
COc1ccc(/C=N/Nc2ncnc3sc(C)c(C)c23)cc1	inactive: 96%
O=C(CSc1nnc(-c2cccnc2)o1)c1cc2ccccc2oc1=O	inconclusive: 105%
COc1ccc(C2NC(c3ccc(OC)cc3OC)C(C)C(=O)C2C)c(OC)c1 (configuration not stated)	inactive: 101%
COc1ccc(-c2oc3c(OC)c(OC)c(OC)c(O)c3c(=O)c2OC)cc1OC	inconclusive: 90%
O=C(OCc1cccc2ccccc12)c1ccc2c(=O)[nH]c(CN3CCOCC3)nc2c1	inconclusive: 96%
COc1cccc(C(=O)COC(=O)c2n[nH]c(=O)c3ccccc23)c1	inconclusive: 92%
Cc1sc2ncnc(NC(C)C(=O)O)c2c1C (configuration not stated)	inconclusive: 93%
O=C(N/N=C/c1c(O)n(-c2ccccc2Cl)c(=O)c2ccccc12)c1cccnc1	inactive: 94%
CC(C)c1nc(SCC(=O)Nc2c[nH]c(=O)[nH]c2=O)c2cnn(-c3ccccc3)c2n1	inactive: 95%
CCCc1cc(C(N)=O)c(NC(=O)C2CCCO2)s1 (configuration not stated)	inconclusive: 102%
Cc1ccccc1Cn1c(CN2CCN(C(=O)c3ccco3)CC2)nc2c1c(=O)n(C)c(=O)n2C	inconclusive: 96%
Cc1cc(NC(=O)Nc2ccccc2F)ccc1Br	inactive: 98%
CC(C)CC(c1nnnn1Cc1ccc2c(c1)OCO2)N1CCC(C(N)=O)CC1 (configuration not stated)	inactive: 101%
O=C(NCC1CCCO1)C1CC(=O)N(C2CCCC2)C1 (configuration not stated)	inconclusive: 108%
N#Cc1ccc(N/N=C/c2ccccc2)c([N+](=O)[O-])c1	inactive: 100%
COc1ccc(/C=C(\C#N)C(=O)OCC(=O)Nc2ccc(-c3nc4ccc(C)cc4s3)cc2)cc1	inconclusive: 90%
Nn1cnnc1SCC(=O)Nc1ccc2c(c1)OCO2	inconclusive: 93%
COc1cc(C)ccc1OCCOc1c(Cl)cc(Cl)cc1Cl	inconclusive: 92%
CCCCNc1nc(=S)[nH]c2cc(OC)c(OC)cc12	inconclusive: 66%
Cc1cc(C(=O)N/N=C/c2ccc(O)c([N+](=O)[O-])c2)c(C)n1-c1ccc(F)cc1	inconclusive: 92%
Cc1c(C(=O)Nc2cccc3cccnc23)oc2ccccc12	inconclusive: 99%

Structure (SMILES)	GTP binding activity (% of control)
C=CCn1c(=O)c(C(=O)Nc2ccccc2S(N)(=O)=O)c(O)c2ccccc21	inconclusive: 93%
O=C(Nc1ccc2c(c1)CCC2)c1cccc(S(=O)(=O)N2CCN(c3ccc(F)cc3)CC2)c1	inconclusive: 107%
COc1ccc(C2Nc3ccccc3C(=O)N2c2ccc(C)cc2)cc1Cn1nnc2ccccc21 (configuration not stated)	inconclusive: 91%
COc1cc(CO)cc(Br)c1OCC(=O)Nc1cccc2ccccc12	inactive: 103%
CCOc1ccc(CCNC(=O)CCS(=O)(=O)c2ccc(OC)cc2)cc1OCC	inactive: 106%
CCOc1ccc(/C=C/c2c([N+](=O)[O-])c(=O)n(C)c(=O)n2C)cc1	inconclusive: 89%
CC(Oc1ccccc1)C(=O)NC1=NCCS1 (configuration not stated)	inactive: 100%
O=C(O)c1ccccc1OCCOc1ccccc1	active: 157% [activator]
CC(C)C1NC(=S)N(Cc2ccccc2)C1=O (configuration not stated)	inactive: 100%
O=C(CN1CCN(c2ccc(O)cc2)CC1)Nc1cc(S(=O)(=O)N2CCCCC2)ccc1Cl	inconclusive: 85%
COc1cccc(OC)c1-c1nn2c(-c3cc(-c4ccccc4)n[nH]3)nnc2s1	active: 206% [activator]
Brc1ccc(CSc2ncn[nH]2)cc1	inconclusive: 108%
O=C(CSc1n[nH]c(-c2ccccc2)n1)Nc1ccc(Br)cn1	inactive: 106%
COCCNC(=O)Nc1ccc2nc(-c3ccco3)c(-c3ccco3)nc2c1	inconclusive: 87%
O=C(Nc1ccccc1)C1=C(c2ccccc2)S(=O)(=O)CCS1(=O)=O	inactive: 87%
CC(C)(C)OC(=O)N1CCC[C@H]1c1nnc(SCc2ccc(Cl)cc2Cl)o1	inconclusive: 87%
COc1cc(/C=N\NC(=O)c2sc(N)nc2C)cc(OC)c1OC	inconclusive: 81%
O=C1CC(c2nc3ccccc3[nH]2)CN1c1ccccc1F (configuration not stated)	inconclusive: 104%
C/C(=N\NC(=O)c1ccco1)c1ccc(NC(=O)c2ccccc2)cc1	inconclusive: 98%
O=C(CN1CCN(CCOCCO)CC1)N1c2ccccc2Sc2ccc(Cl)cc21	active: 120% [activator]
Cc1nc(Cl)c2c(n1)N(CC(N)=O)C(=O)CO2	inactive: 100%
COc1ccc2cc(CCNC(=O)C3CC3)c(=O)[nH]c2c1	inconclusive: 96%
CN(NC(=O)CN1C(=O)c2ccccc2C1=O)C1=NS(=O)(=O)c2ccccc21	inactive: 101%
